# In ChEMBL document CHEMBL1157539, “Thousands of chemical starting points for antimalarial lead identification” (Nature, 2010):
# Over roughly 13,000 compounds, “IFI” has its median near 4; the highest 2% begin near 17. The list shows a part of the results.
# Experiment: GSK_TCMDC: Inhibition Frequency Index (IFI). The number of non-kinase HTS assays where a compound showed > 50 % inhibition, expressed as a percentage of the number of such assays in which the compound was tested (-0 is zero)
# Format: functional
row,SMILES,IFI [%]
1,COc1ccc2nccc([C@@H](O)CN3CCC(NC(=O)Cc4cc5ccccc5s4)CC3)c2c1,2.94
2,Cc1cccc2nc(-c3cccc(-c4cccc(NC(=O)Cc5c[nH]cn5)c4)c3)[nH]c12,4.63
3,COc1cccc(NC(=O)NC2CCN(CCCCCNC(=O)/C=C/c3ccc(Cl)c(Cl)c3)CC2)c1,2.52
4,CN1CCN(c2nsc3ccc(-c4ccc(NC(=O)Nc5cc(C(F)(F)F)ccc5F)cc4)cc23)CC1,12.5
5,COc1ccc2nccc([C@@H](O)CN3CCC(NC(=O)/C=C/c4cc([N+](=O)[O-])ccc4OC)CC3)c2c1,3.62
6,CCCNCc1ccc(-c2ccc(CN(Cc3ccc4c(c3)OCO4)C(=O)[C@H]3CCCO3)cc2)nc1,2.78
7,CC=CC1CCNC(C(O)c2ccnc3ccc(OC)cc23)C1 (centres undefined),1.45
8,O=C(NCc1cccc(C(F)(F)F)c1)c1ccc(CNC(=O)c2ccc(O)c(-c3ccc(Cl)c(Cl)c3)c2)cc1,2.94
9,CCN1CCc2c1cc(C(=O)N[C@@H](Cc1ccccc1)[C@H](O)CNC(C)(C)c1cccc(C(F)(F)F)c1)cc2N1CCCCS1(=O)=O,4.48
10,Fc1ccc2[nH]c(-c3cccc(-c4ccc(CNCc5ccccc5)cc4)c3)nc2c1,8.57
11,Cc1c(-c2ccccc2)ccc2[nH]cc(CC#N)c12,2.11
12,O=C(NCc1cccs1)[C@H](Cc1ccccc1)Nc1ccnc(NCCc2ccccc2)n1,6.82
13,Cc1ccc(S(=O)(=O)n2cc(-c3ccnc(N)c3)c3cc(Br)cnc32)cc1,5.26
14,O=C(Nc1ccc(C(=O)Nc2cccc(C3=NCCN3)c2)cc1)Nc1ccc(C2=NCCN2)cc1,3.57
15,CN(C(=O)/C=C/c1cc(C(F)(F)F)ccc1F)C1CCN(CCCCCNC(=O)/C=C/c2ccc(Cl)c(Cl)c2)C1 (centres undefined),2.14
16,CC(=O)c1cccc(NC(=O)NC2CCN(CCCCCNC(=O)/C=C/c3ccc(Cl)c(Cl)c3)CC2)c1,2.01
17,O=S(=O)(Nc1cccc(CCN2CCC(N3CCCCC3)CC2)c1)c1cccc2cccnc12,0
18,c1ccc2oc(-c3cc4ccncc4cc3OC3CCNCC3)cc2c1,8.77
19,CN(C)Cc1ccc(-c2cc3ncnc(Nc4ccc(OCc5cccc(F)c5)c(Cl)c4)c3s2)[nH]1,9.29
20,Cc1cccc(C(=O)Nc2ccnc(N3CCC(N(C)Cc4cccc(C#N)c4)CC3)c2)c1,-0
21,Cc1ccc(/C=C2/SC(=Nc3ccccc3)NC2=O)c(C)c1,1.72
22,O=C(N[C@@H](Cc1ccccc1)C(=O)NC1CCCc2ccccc21)c1ccc(O)c(-c2cccc(C(F)(F)F)c2)c1 (some centres undefined),0.73
23,CC1CN(c2ccc(NC(=O)c3ccsc3)cc2C(=O)N2CCN(Cc3ccc(C(C)(C)C)cc3)CC2)CC(C)O1 (centres undefined),1.48

row,SMILES,IFI [%]
1,COc1nc(-n2ccc(=N)cc2)nc2ccccc12,1.63
2,Cc1c(N=O)cc(C(C)(C)C)c(O)c1C(=O)Nc1ccc([N+](=O)[O-])cc1Cl,25.2
3,Cc1cnc(CNCc2ccc(S(=O)(=O)Nc3ccc(Oc4cccc(Cl)c4)cc3)cc2)cn1,7.77
4,N=C(N)Nc1nc(-c2ccc(NCc3ccc(CNc4cccc(-c5csc(NC(=N)N)n5)c4)cc3)cc2)cs1,13.6
5,Cc1ccc(-c2cc(C(=O)Nc3ccc(S(=O)(=O)N4CC(C)OC(C)C4)cc3)[nH]n2)c(O)c1 (centres undefined),1.47
6,C=CCN(c1nc(NC)nc(NCc2c(OC)cccc2OC)n1)C1CCCC1,11.5
7,Cc1ccccc1C1CCN(C2CCC(NC(=O)c3ccc(-c4cc(C(F)(F)F)nn4C)s3)CC2)CC1 (centres undefined),14
8,O=C(/C=C/c1ccc(Cl)c(Cl)c1)NCCCCCN1CCCC(C(=O)Nc2ccc(Cl)c(Cl)c2)C1 (centres undefined),14
9,COC(=O)C1=C(C)NC2=C(C(=O)CC(c3ccc(OC)c(OC)c3)C2)C1c1cccc(O)c1 (centres undefined),-0
10,O=C(Nc1cccc(-c2cccc(-c3nc4ccccc4[nH]3)c2)c1)Nc1ccc(F)c(F)c1F,8.74
11,CC(=O)Nc1ncc(C(=O)Nc2ccc(-c3cccc(-c4nc5cc(F)ccc5[nH]4)c3)cc2)s1,4.67
12,Nc1nc(N)c2c(ccn2Cc2cc3c(cc2Cl)OCO3)n1,2.88
13,CSc1ccc(CN2CCC(NC(=O)c3ccc(-c4ccc(N(C)C)cc4)s3)CC2)cc1,8.77
14,Cc1cc(NC(=O)c2cccs2)ccc1OC1CCN(Cc2ccc(F)cc2)CC1,3.23
15,CCCCOc1ccc(C(O)C(CN2CCCCC2)c2ccccc2)cc1 (centres undefined),0.74
16,CCCCN(CCCC)CCCCCCNc1c2ccccc2nc2ccccc12,2.9
17,FC(F)(F)c1ccc2[nH]c(-c3cccc(-c4cccc(CN5CCN(c6ccncc6)CC5)c4)c3)nc2c1,11.5
18,Cc1nnsc1C(=O)Nc1cccc(-c2csc(-c3nc4ccccc4[nH]3)c2)c1,7.34
19,Nc1nc(N)c2c(Oc3cc(Cl)c(Cl)c(Cl)c3)cccc2n1,3.08
20,CCC[C@@H]([C@@H](CC1CCCCC1)C(=O)N[C@H](C(=O)Nc1nccs1)C(C)(C)SCCOCCOCC)N(O)C=O,5.07
21,O=C(c1cc(C(=O)Nc2ccccc2F)c(=O)n(-c2ccccc2F)c1)c1cc(Cl)ccc1O,2.07
22,COc1ccc(COc2cc(NCCCN)nc3ccccc23)cc1,0
23,COc1cc(C(=O)N2CCOC(CCN3CCC[C@H]3C(=O)Nc3ccccc3)(c3ccc(Cl)c(Cl)c3)C2)cc(OC)c1OC (some centres undefined),4.83

row,SMILES,IFI [%]
1,O=C1CN(C(=O)CCC2CCCC2)C(c2ccc(F)cc2)c2cc(F)ccc2N1 (centres undefined),2.61
2,CCNc1cc(C)nc(Nc2ccc(NC(=O)C3CCCC3)cc2)n1,7.69
3,COc1ccc(-c2cccc(NC(=O)c3cccc(C#N)c3)c2)cc1CN(C)CCO,3
4,O=C(NCCN1CCCC1)N1CCCN(c2ncnc3cc(-c4ccc(F)cc4)sc23)CC1,0
5,Cc1cc(OCCCN2CCCCC2)ccc1NC(=O)COc1ccc(Cl)cc1C(=O)c1cc(C#N)cc(C(F)(F)F)c1,7.2
6,O=C(NCc1cccc2ccccc12)C1CCCN(C(=O)c2ccc(O)c(-c3ccc(Cl)c(Cl)c3)c2)C1 (centres undefined),-0
7,COc1ccc2nccc(N3CCCN(CCNS(=O)(=O)c4ccc5c(c4)NC(=O)CS5)CC3)c2n1,0.7
8,O=C(NCc1cccc(F)c1)Nc1cccc(-c2cccc(-c3nc4ccccc4[nH]3)c2)c1,1.01
9,CCOc1c(CCNCCCCNCCc2ccc3ccccc3c2OCC)ccc2ccccc12,18.4
10,CC(=O)Oc1c(C(=O)C2CCC(C(C)(C)C)CC2)c(OC(C)=O)c2ccccc2c1OC(C)=O (centres undefined),4.88
11,Cc1nc(-c2cccc(Nc3nccc(NCC(O)c4cccc(F)c4)n3)c2)cs1 (centres undefined),15.9
12,O=C(Nc1nccs1)c1sc2ccccc2c1O,5.65
13,O=C(NC1CCCc2ccccc21)[C@@H]1CCCN1C(=O)c1ccc(O)c(-c2ccc(Cl)c(Cl)c2)c1 (some centres undefined),0
14,CN(CCN)Cc1cccc(-c2ccc(-c3nc4cc(C(F)(F)F)ccc4[nH]3)s2)c1,9
15,CCC1CN2CCc3c([nH]c4ccccc34)C2CC1CC1=NCCc2c1[nH]c1ccc(OC)cc21 (centres undefined),7.63
16,CC(NC(=O)c1ccc(O)c(-c2ccc(Cl)c(Cl)c2)c1)C(=O)NCCN1CCCC1 (centres undefined),3.7
17,Fc1ccc2[nH]c(-c3ccc(-c4cccc(CN5CCN(CCN6CCOCC6)CC5)c4)cc3)nc2c1,4.23
18,COc1ccc2[nH]ccc(=NN=Cc3ccccc3)c2c1,2.21
19,CCCCCCCNCc1c(O)ccc2c(CNCCCCCCC)c(O)ccc12,13.6
20,C=CCN1CCC(N(Cc2cccc(Oc3ccccc3)c2)C(=O)C(c2ccccc2)c2ccccc2)CC1,2.13
21,CNC(=O)c1ccccc1Nc1nc(Nc2ccc(N3CCN(C)CC3)nc2)ncc1C,4
22,CC1CCCCN1S(=O)(=O)c1ccc(NC(=O)c2cc(-c3ccccc3O)n[nH]2)cc1 (centres undefined),7.46
23,Cc1ccc(NC(=O)c2cccc(CN3CCCN(Cc4cccc(O)c4)CC3)c2)cc1C,6.29

row,SMILES,IFI [%]
1,CCC(C)NC(=O)CN1CN(c2ccccc2)C2(CCN(C(=O)c3ccc4ccccc4c3)CC2)C1=O (centres undefined),1.67
2,Clc1ccc(CNCCCCCCCNCc2ccc(Cl)c(Cl)c2)cc1Cl,15
3,Cc1nc(N)nc(N)c1OCc1cccc2ccccc12,1.45
4,Cc1cccc2nc(-c3cccc(-c4ccc(NC(=O)Nc5cccc(C#N)c5)cc4)c3)[nH]c12,5
5,O=C(C=Cc1ccc(F)cc1)N1CCN(S(=O)(=O)c2ccc(Cl)cc2)CC1,0
6,CCC(C)CN1CCCN(c2ccc(NC(=O)c3cccs3)cc2)CC1 (centres undefined),5.56
7,CN(c1ncc(-c2cccc(CNCc3ccccc3O)c2)cn1)C1CCCCC1,10.5
8,CC1CCc2c(C(=O)N3CCc4ccccc4C3)csc2C1 (centres undefined),1.45
9,Nc1ncc(-c2ccc(F)cc2)c2ccc(-c3cccc(F)c3)cc12,4.93
10,C[C@@H](Nc1nc(NCc2ccccc2)c2sccc2n1)c1ccccc1,6.67
11,O=S(=O)(Nc1ccc2nccc(N3CCNCC3)c2c1)c1ccc2c(Cl)cccc2c1,3.88
12,CC1(C)NC(N)=NC(=N)N1OCCc1ccccc1,2.17
13,CCN(CC)CCN(Cc1ccc(-c2ccc(C(F)(F)F)cc2)cc1)C(=O)Cn1c(CCc2cccc(F)c2F)nc(=O)c2cccnc21,9.35
14,COc1ccc2c(c1)CCCC2NCCCCNC(=O)c1ccc(NC(=O)c2ccc(Cl)cc2)cc1 (centres undefined),2.7
15,COc1ccc(CCON2C(=N)N=C(N)NC2(C)C)cc1OC,3.62
16,O=C(CCc1cccnc1)Nc1cccc(-c2ccc(-c3nc4cc(C(F)(F)F)ccc4[nH]3)cc2)c1,6.96
17,CCOc1cc(C(=O)NCCN(C(C)C)C(C)C)ccc1-c1nc2cc(Cl)ccc2[nH]1,1.41
18,O=C(NC1CCCCCC1)[C@@H]1CCCN1C(=O)c1ccc(O)c(-c2ccc(Cl)c(Cl)c2)c1,2.96
19,Cc1ccc(-c2cnc3[nH]cc(-c4ccc(C(=O)O)c(C)c4)c3c2)cc1C,7.55
20,Oc1ccc2[nH]c(-c3cccc(F)c3)nc2c1CNCc1ccccc1,5.22
